Molecules are shown by their SMILES. The campaign covered roughly 310,000 compounds. About 14,000 (4.5%) showed an effect of 50% or more. Effects have a minus sign here. Some of the results follow.
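Also: peak tail current of the secondary pulse compared with the same well before compound.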

The assay deals with human ether-à-go-go-related gene (hERG) potassium channel (human, UniProt Q12809). The experiment in a line: primary screen, population patch clamp on CHO cells stably expressing hERG.
Chain of human ether-à-go-go-related gene (hERG) potassium channel (Q12809 whole entry, looked up): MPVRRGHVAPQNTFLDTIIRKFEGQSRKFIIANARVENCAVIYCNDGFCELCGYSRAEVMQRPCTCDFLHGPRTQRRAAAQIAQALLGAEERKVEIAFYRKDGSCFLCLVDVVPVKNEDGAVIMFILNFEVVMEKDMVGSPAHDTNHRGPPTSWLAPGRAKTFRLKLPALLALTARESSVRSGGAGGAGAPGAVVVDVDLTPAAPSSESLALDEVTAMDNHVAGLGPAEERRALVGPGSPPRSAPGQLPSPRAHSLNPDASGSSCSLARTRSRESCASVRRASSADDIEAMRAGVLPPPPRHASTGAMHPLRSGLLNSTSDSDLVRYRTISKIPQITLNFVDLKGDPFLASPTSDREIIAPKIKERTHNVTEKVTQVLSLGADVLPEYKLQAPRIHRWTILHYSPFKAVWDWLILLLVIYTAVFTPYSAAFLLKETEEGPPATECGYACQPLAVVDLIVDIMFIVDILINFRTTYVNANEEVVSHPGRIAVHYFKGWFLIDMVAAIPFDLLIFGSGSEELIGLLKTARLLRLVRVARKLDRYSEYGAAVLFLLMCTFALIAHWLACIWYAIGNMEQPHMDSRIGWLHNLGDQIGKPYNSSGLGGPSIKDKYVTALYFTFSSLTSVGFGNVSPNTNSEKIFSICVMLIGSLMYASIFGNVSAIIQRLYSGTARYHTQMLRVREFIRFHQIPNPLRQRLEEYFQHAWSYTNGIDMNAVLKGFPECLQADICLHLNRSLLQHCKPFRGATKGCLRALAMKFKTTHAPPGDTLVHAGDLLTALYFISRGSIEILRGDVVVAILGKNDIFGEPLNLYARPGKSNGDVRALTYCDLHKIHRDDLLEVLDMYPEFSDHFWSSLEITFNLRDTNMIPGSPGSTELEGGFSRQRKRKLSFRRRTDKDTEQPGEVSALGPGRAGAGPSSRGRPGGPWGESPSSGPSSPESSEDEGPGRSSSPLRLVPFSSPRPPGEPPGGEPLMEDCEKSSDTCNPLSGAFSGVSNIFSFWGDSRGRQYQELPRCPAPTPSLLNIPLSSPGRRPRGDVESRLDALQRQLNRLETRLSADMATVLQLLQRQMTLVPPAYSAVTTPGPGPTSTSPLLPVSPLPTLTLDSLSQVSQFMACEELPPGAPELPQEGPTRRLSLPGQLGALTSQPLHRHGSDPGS
`CCOC(=O)c1oc2nc3c(cc2c1N)COC(C)(C)C3`: the “hERG current change (%, negative = inhibition) at 10uM” value turned out to be 11.5%.

On to `COc1ccc(C)cc1S(=O)(=O)N(C)CC(=O)N1CCC(C)CC1`, for which the “hERG current change (%, negative = inhibition) at 10uM” value was found to be 22.8%. In the case of `CC1CCc2sc(C(=O)NC3CCN(Cc4ccccc4)CC3)cc2C1` (centres unmarked) it was -54.1%; in that of `C=CCOc1ccc(C(=O)N(Cc2ccc(N(C)C)cc2)C2CCS(=O)(=O)C2)cc1` (centres unmarked), -15.3%; in that of `O=C(COc1ccc2ccc(=O)oc2c1)Nc1cccnc1`, 10.6%. In the case of `Cc1ccc(N2CC(C(=O)Nc3ccc(C)c(S(=O)(=O)N(C)C)c3)CC2=O)cc1` (centres unmarked) it was -25.2%; in that of `Cn1nnnc1SCC1=C(C(=O)[O-])N2C(=O)[C@@H](NC(=O)[C@H](O)c3ccccc3)[C@H]2SC1.[Na+]`, 16.1%. In the case of `CCC(C)c1ccccc1NC(=O)CN(C)CCOc1ccc(Cl)cc1` (centres unmarked) it was 9.29%; in that of `CCc1c(C(=O)N2CCCN(C)CC2)csc1C`, -5.55%. For the molecule `Cc1ccc(OCC(O)CN2CC3(C)CC2CC(C)(C)C3)cc1.O=C(O)C(=O)O` (centres unmarked), the “hERG current change (%, negative = inhibition) at 10uM” value is listed as -53.6%.

Regarding `COc1ccc(NC(=O)CN(C)CC(=O)Nc2ccc3c(c2)CCC3)cc1`, the “hERG current change (%, negative = inhibition) at 10uM” value was -5.02%.

As for `COc1ccc(NC(=O)CN(C)C(=O)c2cc(C)on2)cc1`, the “hERG current change (%, negative = inhibition) at 10uM” value was 6.97%. On to `Cc1cc(=O)oc2cc(OCC(=O)N3CC(C)OC(C)C3)ccc12` (centres unmarked), for which the “hERG current change (%, negative = inhibition) at 10uM” value is reported as 16.7%. In the case of `O=c1[nH]cnc2c1cnn2Cc1ccccc1` it was 20.7%; in that of `O=C(Nc1ccccc1N1CCCC1)c1ccc(Cl)c(S(=O)(=O)N2CCOCC2)c1`, -41.4%; in that of `COC(=O)CC1NCCc2cc(OC)c(OC)cc21` (centres unmarked), 5.67%. In the case of `COc1ccc([N+](=O)[O-])cc1NC(=O)CCN1CCN(C)CC1` it was 16.3%. In the case of `COc1cccc(NC(=O)Nc2cc(C)ccc2F)c1` it was -14%; in that of `COc1ccc(-c2coc3c(C)c4oc(=O)c(CCC(=O)O)c(C)c4cc23)cc1`, -2.26%. `O=C(COc1ccccc1Cl)NNC(=O)c1cc(S(=O)(=O)N2CCOCC2)ccc1N1CCCC1`: the “hERG current change (%, negative = inhibition) at 10uM” value came to 9.55%. In the case of `Cc1cc(C)nc(NC(=O)c2ccc(COc3ccccc3Cl)cc2)c1` it was 24.5%; in that of `COCCNC(=O)c1ccc2c(c1)NC(=O)CS2`, 11.6%.

For `COCCNC(=O)CCSCc1ccccc1F`, the “hERG current change (%, negative = inhibition) at 10uM” value was -21.6%.

For `CN(C)C=NC1=NN(c2cccc(C(F)(F)F)c2)CC1`, the “hERG current change (%, negative = inhibition) at 10uM” value is recorded as -27.2%. In the case of `O=C(CSc1cn(CCNC(=O)c2ccccc2)c2ccccc12)NCC1CCCO1` (centres unmarked), the “hERG current change (%, negative = inhibition) at 10uM” value is -10.9%.

With `COc1ccc(Cl)cc1NC(=O)CN(C)CC(=O)Nc1ccc(S(N)(=O)=O)cc1`, the “hERG current change (%, negative = inhibition) at 10uM” value was 4.44%. In the case of `O=C(CSc1ccsc1[N+](=O)[O-])NCCc1ccc(Cl)cc1` it was 15.6%; in that of `Cc1cccc(NC(=O)c2ccc(S(=O)(=O)N3CCCC3)cc2)c1C`, 15.4%; in that of `CCOC(=O)NC(=O)CSc1nc(C)cc(C)c1C#N`, 5.47%.

For the molecule `CCOC(=O)CN(c1ccccn1)S(=O)(=O)c1ccc(OC)cc1`, the “hERG current change (%, negative = inhibition) at 10uM” value is recorded as 15.3%. In the case of `CC(=O)N1CCCc2cc(S(=O)(=O)N3CCCC(C(=O)N4CCN(c5cccc(Cl)c5)CC4)C3)ccc21` (centres unmarked) it was 1.99%; in that of `NS(=O)(=O)c1ccc(CNC(=O)CNC(=O)Cc2ccccc2)cc1`, 25%; in that of `CC(=O)NC1=NN(C(C)=O)C(c2ccccn2)S1` (centres unmarked), -0.717%. In the case of `CCc1nc(SCC(=O)Nc2nccs2)c2oc3ccccc3c2n1` it was 11.8%; in that of `Cc1cc(C(=O)N2CCCC(C(=O)c3cccc4ccccc34)C2)nc(C)n1` (centres unmarked), -2.09%. In the case of `Cc1ccc(SCCC(=O)N(C)C)cc1` it was 2.14%. Take `O=C(NC1CCCCC1)C(c1ccco1)N(CCc1ccccc1)C(=O)C(F)(F)F` (centres unmarked): the “hERG current change (%, negative = inhibition) at 10uM” value is given as -0.752%. In the case of `CCc1nnc(NC(=O)c2cccc(OC)c2)s1` it was 5.07%; in that of `O=C(Cc1ccccc1)Nc1cccc(-c2nnc(-c3ccco3)o2)c1`, -13.8%; in that of `CCCc1noc2c1/C(=N\O)CC(CC(C)SCC)C2` (centres unmarked), -11.1%. In the case of `CCCn1c(=N)n(CC(O)COc2ccc(C)cc2)c2ccccc21.Cl` (centres unmarked) it was -89%.

For the molecule `Cc1onc(-c2ccccc2)c1C(=O)OCC(=O)N(C)c1c(N)n(Cc2ccccc2)c(=O)[nH]c1=O`, the “hERG current change (%, negative = inhibition) at 10uM” value turned out to be 3.42%. In the case of `COc1cccc(OCC(Cn2c(C)nc3ccccc32)OC(C)=O)c1` (centres unmarked) it was -12.8%. In the case of `CCOC(=O)C1CCN(C(=O)CCCNC(=O)Cn2cnc3sc(C)c(C)c3c2=O)CC1` it was -0.596%. In the case of `COc1ccc(C(=O)/C=C/c2ccc(OC(=O)c3cc(OC)c(OC)c(OC)c3)cc2)cc1` it was -2.04%. With `O=C(C1CCCN(CCCc2ccccc2)C1)N1CCCCCC1.O=C(O)C(=O)O` (centres unmarked), the “hERG current change (%, negative = inhibition) at 10uM” value is recorded as -46.2%. In the case of `COC(=O)c1ccc(C(c2c(C)n(C)n(-c3ccccc3)c2=O)c2c(C)n(C)n(-c3ccccc3)c2=O)cc1` it was 3.98%. In the case of `CSc1ccccc1NC(=O)CN(C)Cc1cccc(Cl)c1.O=C(O)C(=O)O` it was 6.55%; in that of `COc1ccc(C(=O)/C(C)=N/O)cc1OC`, -0.545%; in that of `O=C(NC(=S)Nc1ccccn1)c1ccco1`, 2.7%. In the case of `COc1cccc(NC(=O)CN2CCN(CC(=O)Nc3ccc(F)cc3)CC2)c1` it was -80.3%. For the molecule `O=C(COC(=O)CSc1ccc(F)cc1)NCc1ccco1`, the “hERG current change (%, negative = inhibition) at 10uM” value came out at 5.82%. As for `Cc1ccc(S(=O)(=O)c2c(N)n(NC(=O)C3CC3)c3nc4ccccc4nc23)cc1`, the “hERG current change (%, negative = inhibition) at 10uM” value is reported as -4.33%.

For `COc1ccc(S(=O)(=O)NCCC(=O)NCc2ccccc2)cc1`, the “hERG current change (%, negative = inhibition) at 10uM” value was -13.5%. In the case of `CCOc1cc2c(cc1OCC)C(C(=O)O)C(c1ccc(OC)c(O)c1)N(C)C2=O` (centres unmarked) it was 14.9%; in that of `O=C(NC1CCN(C(=O)N2CCOCC2)CC1)c1ccccc1`, -9.34%. In the case of `COc1cccc(NC(=O)CCC2CCN(C(=O)Cc3cccc(F)c3)CC2)c1` it was -13.7%; in that of `CCCN(C(=S)Nc1ccccc1)C1CCS(=O)(=O)C1` (centres unmarked), 19.9%. In the case of `COC(=O)C1=C(N)Oc2c(oc(CO)cc2=O)C1c1c(F)cccc1Cl` (centres unmarked) it was -4.76%.

With `COc1ccc(C(=O)NCC(=O)OCC(=O)N2N=C(c3ccc(Cl)cc3)CC2c2ccco2)cc1OC` (centres unmarked), the “hERG current change (%, negative = inhibition) at 10uM” value is listed as -5.57%.

On to `Cc1c(C)n(C(=O)CN2CCC(C)CC2)c2ccccc12`, for which the “hERG current change (%, negative = inhibition) at 10uM” value is recorded as -14.5%. With `CCOC(=O)CC(=O)Nc1cc(Cl)ccc1O`, the “hERG current change (%, negative = inhibition) at 10uM” value is reported as 1.77%. In the case of `CC(C)c1nnc(NC(=O)COc2ccc3c(c2)OCO3)s1` it was 22.4%.

Turning to `COC(=O)C1=C(C)N(C)C(=O)NC1c1c(OC)ccc2ccccc12` (centres unmarked), the “hERG current change (%, negative = inhibition) at 10uM” value is 10.6%.

With `CN(c1ccccc1)S(=O)(=O)c1ccc2[nH]c(=O)oc2c1`, the “hERG current change (%, negative = inhibition) at 10uM” value was 23.8%. Consider `CC(=O)NCCc1nc2cc(NC(=O)Nc3ccccc3)ccc2n1C`, for which the “hERG current change (%, negative = inhibition) at 10uM” value is -53.8%.

As to `Cc1cc(C(=O)NC2CCCc3ccccc32)c(C)o1` (centres unmarked), the “hERG current change (%, negative = inhibition) at 10uM” value is reported as -7.47%.

Take `Cc1cc(C)c(OCCN2C(=O)NC(C)(C)C2=O)c(Cl)c1`: the “hERG current change (%, negative = inhibition) at 10uM” value is 14.6%. In the case of `O=C(c1cc2ccccc2oc1=O)N(Cc1cccs1)C1CCS(=O)(=O)C1` (centres unmarked) it was -5.2%; in that of `CCN(Cc1ccncc1)C(=O)CSc1ccc2ccccc2c1`, -8.04%; in that of `CCCCCC(=O)NNC(=S)NC(=O)c1ccc([N+](=O)[O-])cc1`, -4.9%. On to `CCCC(=O)NNC(=O)c1ccoc1C`, for which the “hERG current change (%, negative = inhibition) at 10uM” value is given as -5.96%. In the case of `COc1cccc(-c2cc(C(=O)NCCc3ccccc3)no2)c1` it was 11.9%; in that of `CCc1noc(C)c1C(=O)NC1CCCc2c1cnn2-c1cc(C)cc(C)c1` (centres unmarked), 7.45%.

In the case of `O=C(CCCCCNc1nc(=S)[nH]c2ccccc12)NCCc1ccccc1`, the “hERG current change (%, negative = inhibition) at 10uM” value is on record as -4.67%. In the case of `CC(C)c1ccc(NC(=O)c2ccccc2NC(=O)C2CC=CCC2C(=O)O)cc1` (centres unmarked) it was 0.664%; in that of `C=CCN1C(=NC(=O)COc2ccc(Cl)cc2)SC2CS(=O)(=O)CC21` (centres unmarked), 8.39%.

Consider `CC(C)CCNC(=O)CCn1c(=S)oc2ccccc21`, for which the “hERG current change (%, negative = inhibition) at 10uM” value is reported as -7.74%. With `COC(=O)Cc1cc(=O)[nH]c(/N=C(\N)Nc2ccc(C(C)C)cc2)n1`, the “hERG current change (%, negative = inhibition) at 10uM” value was -2.47%. In the case of `CC(C)Oc1ccc(CNC2CCOC(C)(C)C2)cc1` (centres unmarked) it was 18%; in that of `CCOc1ccccc1N(C(=O)CNC(=O)c1ccco1)C(C(=O)NC1CCCC1)c1ccncc1` (centres unmarked), 5.91%. In the case of `Cc1ccc(CNC(=O)Cc2ccc(NC3=NC4CS(=O)(=O)CC4S3)cc2)cc1` (centres unmarked) it was 12%; in that of `COc1ccc(C2CC(c3cccs3)=NN2C(=O)CCC(=O)O)cc1OC` (centres unmarked), 6.38%.

On to `C=CCOC(=O)C1=C[C@@H](c2ccc(C(F)(F)F)cc2)C[C@@H](OCCCCO)O1`, for which the “hERG current change (%, negative = inhibition) at 10uM” value is on record as -33.2%.

Consider `Cc1ccc(S(=O)(=O)N/N=C\c2ccccc2OCc2ccccc2)cc1`, for which the “hERG current change (%, negative = inhibition) at 10uM” value is 6.22%.

For `O=C/C=C/c1c(-c2ccccc2)cc2oc3ccccc3cc1-2`, the “hERG current change (%, negative = inhibition) at 10uM” value amounted to 13.2%. With `CC(C)(C)NC(=O)Nc1ccc2nccnc2c1`, the “hERG current change (%, negative = inhibition) at 10uM” value is on record as -2.34%.

Turning to `NC(=O)[C@@H]1CCCN1Cc1nc(Cc2cccc(C(F)(F)F)c2)no1`, the “hERG current change (%, negative = inhibition) at 10uM” value was determined as 8.45%.

Take `CCOc1ccc2nc(N/C(N)=N/C(=S)Nc3ccc(C)c(C)c3)nc(C)c2c1`: the “hERG current change (%, negative = inhibition) at 10uM” value is given as -1.22%.

These data come from publication PMC4336329 (PLoS ONE, 2015).
